# This is one part of the list.
# T1: UNK ZnF1-3 (human, UniProt Q9C0B0 31-174)
# T1 sequence: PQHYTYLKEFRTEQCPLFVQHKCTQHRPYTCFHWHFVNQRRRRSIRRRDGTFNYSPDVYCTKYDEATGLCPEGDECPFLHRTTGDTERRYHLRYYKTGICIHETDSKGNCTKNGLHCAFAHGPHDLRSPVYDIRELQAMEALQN
# B1: chr16:53361121:53361122:+_ENSG00000177200_ENST00000398510|hu_hu|FALSE|FALSE (ssRNA)
# RNA: GGGAGUUCUACAGUCCGACGAUCAAACCUGAAACAAGGGCUAUAAAUACAAGGCAAUAACAGCUAUAAUUCUUUUAGUAACUACCAACACAUACUUGGAUAUUCUUUCAACUGCAACUUUAGUAUUAUGUAAUUCUACUGAUUCAACAGAGGAUUGAGCAUCA
# B2: chr9:82769708:82769709:-_ENSMUSG00000032253_ENSMUST00000034787|mus_mus|motif|central (ssRNA)
# RNA: GGGAGUUCUACAGUCCGACGAUCAAAAGCUUUUGUGGCUGAUGAUGUAGAGGGCUGCUCGGUGACAACUGGAUCGGCAGCGGCACGGUUGCUCCUAGUUCGAACCACAGAACUGGAUUCUGGUUUACCAUUCAUUUGCGCAGCCAACAGAGGAUUGAGCAUCA
# B3: chr2:48035047:48035048:-_ENSG00000138081_ENST00000403359|hu_mus|motif|central (ssRNA)
# RNA: GGGAGUUCUACAGUCCGACGAUCCAAAAUUGCAGCUUAUUUCUUCACUUCUGUCCCUUCAAAAGUCUUUACGCAGUAAUGCGGAAAUCCCGAGCUCUGACAUCCUGAGUCAAUCUAUUGCCACUUCCUUUUUGGUAGCUUGAGCAACAGAGGAUUGAGCAUCA
# B4: chr14:76904430:76904431:+_ENSMUSG00000022010_ENSMUST00000022587|mus_mus|mus_mus_mus_hu_True|68_108 (ssRNA)
# RNA: GGGAGUUCUACAGUCCGACGAUCUGCUGGAAAAAAAACCCUCGUGGAAAAAAAGAGGGAACACCAGCAGCCUGGUUUAAGCUAGAUAAAAUCUUCUGGCUUUCCGCAGCCCAGGGAGAAACAGAAAACGGCAGCCCUAAUUUACAACAGAGGAUUGAGCAUCA
# B5: chr10:112364808:112364809:-_ENSMUSG00000074748_ENSMUST00000099276|mus_mus|FALSE|FALSE (ssRNA)
# RNA: GGGAGUUCUACAGUCCGACGAUCCAGUAGGAUGGAAAGACAGGUCUUCUGAUGAGCCAAAGGCAAGGCCUUGUCCCCACAAAAUGCUGGACCUUUGGAAAACAGGUGAUUUGGAACUUCUUGAAGACAAGGGCACAAGGGCUUCAACAGAGGAUUGAGCAUCA
# B6: chr1:157130520:157130521:-_ENSMUSG00000026469_ENSMUST00000027741|mus_hu|FALSE|FALSE (ssRNA)
# RNA: GGGAGUUCUACAGUCCGACGAUCUGCGUUCAGGGGGGCCACAGAGAUGUCCCGCACAGCACGGAAUUCACCACAGUUAUUCAGAUGUUCAUUCUCCAGGCGGAAGAAGUUCCACACAAAUCGCCGGAAAACCUCAAGUGGGGCCAACAGAGGAUUGAGCAUCA
# Target: T1, UNK ZnF1-3
# Assay: nsRBNS (natural sequence RNA bind-n-seq); RBNS binding buffer (assumed for nsRBNS): 25 mM Tris pH 7.5, 150 mM KCl, 3 mM MgCl2, 0.01% Triton X-100, 500 ug/ml BSA, 20 U/ml SUPERase-In, 4 C; UNK is unkempt and MSI1 is Musashi-1; names of the RNAs are library labels; protein concentration not given here; high values mean tight binding
row,Binder,binding signal [enrichment R]
1,B1,1.05
2,B2,0.902
3,B3,0.508
4,B4,1.72
5,B5,1.39
6,B6,1.18
